According to PubChem BioAssay (NCATS):
Several values for one entry are separate records, joined by “and”; a condition that tells them apart may be missing. Equal entries are not always repeated. Some of the results follow. Further columns of the screen follow, without active or inactive calls. Most of these compounds were active or inconclusive in the main read-out, so they are no random draw. Words in brackets tell the shape of the fitted curve; partial curves, single points and poor fits give uncertain potencies.

Test: qHTS Assay for Lipid Storage Modulators (AID 1519)
Details: Drosophila S3 cells, BODIPY lipid droplet/cell ratio, laser cytometry, cells loaded with oleic acid
How it was run: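 Cells seeded at 5,000 per well were treated with compounds over a concentration series and loaded with oleic acid (400 uM, as added). Lipid droplet fluorescence (488 nm excitation, 500-530 nm channel) was read by laser-scanning cytometry and normalized to 20 uM Triacsin C.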

[1] = measured here: cell count channel max response
[2] = measured here: cell number channel AC50
[3] = measured here: lipid (BODIPY) channel AC50
[4] = measured here: lipid channel max response
Tags tell the direction and shape of the fitted curve.

SMILES	max response [1]	AC50 [2]	AC50 [3]	max response [4]
c1nc(N2CCOCC2)c2cc(-c3ccoc3)ccc2n1	36.2%	11.2 µM [rising, partial curve]	10 µM [rising, partial curve]	30.8%
COc1ccccc1-c1nccc(NCc2cccnc2)n1	38.9%	6.31 µM [rising, partial curve]	3.16 µM [rising, partial curve]	41.1%
Cc1ccccc1-c1nc(Nc2ccncc2)c2ccccc2n1	4.67%	0.794 µM [rising, partial curve]	0.447 µM [rising, partial curve]	4.3%
O=C1NC(c2cccc([N+](=O)[O-])c2)=CCN1c1ccccc1O	96.4% and 12.3%	15.8 µM [rising, partial curve, poor fit] and 22.4 µM [falling, single point]	15.8 µM [rising, partial curve, poor fit] and 22.4 µM [falling, single point]	121% and 15.7%
NC(Cc1cc(I)c(Oc2ccc(O)c(I)c2)c(I)c1)C(=O)O (stereo not drawn)	41.1%	15.8 µM [rising, partial curve]	25.1 µM [rising, partial curve]	73%
CCNc1ncc2nc(-c3cccc(C#N)c3)c(=O)n(Cc3cccc(OC)c3)c2n1	34.8%	2.82 µM [rising, full curve]	2 µM [rising, full curve]	37.2%
O=c1c(-c2cccs2)nc2cnc(N3CCOCC3)nc2n1CCc1ccccc1	46.9%	2.51 µM [rising, partial curve]	0.891 µM [rising, full curve]	41.4%
CC(C)Oc1cccc(-n2c(CCc3c[nH]c4ccc(Br)cc34)nc3ccccc3c2=O)c1	63.4%	0.398 µM [rising, full curve, poor fit]	0.282 µM [rising, full curve, poor fit]	61.8%
Cn1c(=O)c(-c2cc(F)cc(F)c2)nc2cnc(Nc3ccccc3)nc21	32.1%	2.51 µM [rising, partial curve, poor fit]	39.8 µM [falling, single point]	-107%
O=c1c(-c2ccc(Cl)cc2)nc2cncnc2n1Cc1ccccc1Cl	10.4%	2.82 µM [rising, partial curve]	4.47 µM [rising, partial curve]	16.3%
O=c1c(-c2ccccc2)nc2cnc(Oc3ccccc3)nc2n1C1CC1	40.1%	7.94 µM [rising, partial curve]	1.41 µM [rising, full curve, poor fit]	23.9%
N=C(N)S/C=C\C(=O)O	32.9%	7.08 µM [rising, partial curve, poor fit]	8.91 µM [rising, full curve, poor fit]	42.3%
CN(C)c1ncc2nc(-c3cc(F)cc(F)c3)c(=O)n(-c3ccccc3)c2n1	34.6%	8.91 µM [rising, partial curve, poor fit]	3.16 µM [rising, full curve, poor fit]	27.9%
COc1ccc2[nH]cc(CCNc3cc(-c4cccnc4)ncn3)c2c1	18.2%	1.26 µM [rising, partial curve]	1.41 µM [rising, partial curve]	26.8%
C[N+]1(C)CCc2cc3c(cc2[C@@H]1[C@@H]1C(=O)Oc2c1ccc1c2OCO1)OCO3	42.9% and 55%	31.6 µM [rising, partial curve, poor fit] and 12.6 µM [rising, partial curve, poor fit]	31.6 µM [rising, partial curve, poor fit] and 15.8 µM [rising, partial curve]	53.8% and 96.7%
CN1CCN(c2nc(-c3ccoc3)nc3ccccc23)CC1	52.2%	2.82 µM [rising, full curve]	2.51 µM [rising, full curve, poor fit]	60.1%
O=c1c(-c2cccc(F)c2)nc2cncnc2n1-c1ccccc1	20.2%	0.0891 µM [rising, full curve, poor fit]	0.0891 µM [rising, full curve]	29.4%
